Measurements as given in patent US4725577A, “Biologically active lysine containing octapeptides” (Administrators of the Tulane Educational Fund, priority 1986, dated 1988).
Values joined by “and” are separate entries in the source; they are usually repeats but may differ in a detail not shown here. Equal entries are not always repeated. Not every detail of the peptide structures is certain; ends, links or a residue may be inferred. Positions of bridges follow the written chain, without caps; N, C: chain ends. Non-standard residues stand in square brackets, D forms with d. Residues, ends and D or L forms follow the SMILES beside them. *: point of attachment. For = O=C*

Columns and labels:
GH Release = assay: in vivo growth hormone bioassay in pentobarbital-anesthetized male rats, s.c. injection, plasma GH by RIA; set-up: species or system rat; conditions: for INHIBITION POTENCY GH in vivo: Table C, relative potency, SS-14 = 100, based on 4-point assays
Description: The in vivo growth hormone bioassay utilized is as follows:
Male Charles River CD rats (200-300 g.) with free access to food and water were anesthetized with sodium pentobarbital (60 mg.kg intraperitoneally). Thirty minutes later saline or octapeptide is injected subcutaneously and blood samples are drawn from the jugular vein 15 minutes after subcutaneous injection. The plasma is separated and assayed for growth hormone by RIA as described above. This in vivo bioassay is a modification of the methods used by Schally, et al., "Hypothalamic Peptide Hormones: Basic and Clinical Studies", "Hormonal Proteins and Peptides", C. H. Li, ed. Academic Press, N.Y. 7: 1-54, 1978; Meyers, C. A., Murphy, W. A., Redding T. W., Coy, D. H. and Schally, A. V., Proc. Natl. Acad. Sci., USA 77: 6171, 1980; Murphy, W. A., Meyers, C. A. and Coy, D. H., Endoc. 109: 491, (1981) as well as Veber et al., Pro. Natl. Acad. Sci., USA 75: 2636-2640 (1978). For some analogs, doses as low as 0.02 μg/100 g. or even 0.005 μg/ 100 g. are active. The potency of the octapeptides of this invention relative to somatostatin is illustrated in Tables A, B and C. Single dose assays are shown in Table A and 4 point assays at 2 dose levels in Tables B and C.

[1] = test system: MT/W9A rat mammary adenocarcinoma; assay: MT/W9A rat mammary adenocarcinoma model; type: in vivo; conditions: 3 ug b.i.d.
[2] = test system: pentagastrin or desglugastrin-induced gastric acid output; assay: gastric acid secretion in dogs with gastric fistulae; type: in vivo
Description: In order to compare some of the biological actions of the octapeptides of the present invention and somatostatin on gastrointestinal secretions and on the release of some gastrointestinal homones in dogs, the following procedures are used:
Mongrel dogs weighing 15-20 kg. are prepared surgical with gastric (GF) and pancreatic fistulae (PF) as described by Konturek, et al., (1976) 225, 497 and Konturek, et al., Gastroenterology, (1976) 58, 1-6. Secretions from the GF and PF are collected continuously at 15 minute intervals. Hydrogen ion and pepsin concentrations in the […] are also measured in 15- or 30-minute outputs. (Konturek, et al., J. Physiol. Lond., 255, 497 (1976) and Konturek, et al., (1976) supra.). Basal secretion is first collected for two 15 minute periods, and then the secretory stimulant for gastric and/or pancreatic secretion is administered for 31/2 hours. When the secretory rate reaches a subtained plateau, the octapeptides or somatostatin are given in standard doses (2-μg/Kg/hr.). i.v. for a one hour period. In control experiments, the animals received secretory stimulants along for the duration of the tests.
In tests on gastric stimulation, pentagastrin or desglugastrin (glutaroyl-Ala-Tyr-Gly-Trp-Leu-Asp-Phe-NH2) is infused i.v. in a constant dose (3 μg/kg/hr.), shown previously to elicit near maximal gastric acid secretion. Gastric secretion is measured and acid content determined by titration with 0.1N NaOH. In tests on pancreatic secretion, synthetic secretion (Squibb and Sons, Inc., New York, N.Y.) and caerulein (Farmitalia, Italy) are used in constant doses shown previously to evoke near maximal stimulation of bicarbonate of pancreatic enzyme secretion (Konturek, et al., (1976) supra.
The results observed for the octapeptides of the present invention and somatostatin on gastric acid response to pentagastrin are as follows: […]

Compound	INHIBITION POTENCY GH in vivo (GH Release)	also measured
CC(=O)N[C@H](Cc1ccc(Cl)cc1)C(=O)N[C@H]1CSSC[C@@H](C(=O)N[C@H](C(N)=O)[C@@H](C)O)NC(=O)[C@H]([C@@H](C)O)NC(=O)[C@H](CCCCN)NC(=O)[C@@H](Cc2c[nH]c3ccccc23)NC(=O)[C@H](Cc2ccccc2)NC1=O [RC-15]	860	growth of MT/W9A rat mammary tumor [1]: powerfully inhibited the growth; percentage change in tumor volume ([1]; after 16 days of treatment, controls 2808±812%): 1106±447%
C[C@@H](O)[C@@H]1NC(=O)[C@H](CCCCN)NC(=O)[C@@H](Cc2c[nH]c3ccccc23)NC(=O)[C@H](Cc2ccccc2)NC(=O)[C@@H](NC(=O)[C@H](N)Cc2ccccc2)CSSC[C@@H](C(=O)N[C@@H](Cc2c[nH]c3ccccc23)C(N)=O)NC1=O [RC-95-I] (H-[dF]CF[dW]KTCW-NH2; disulfide 2-7)	5280	
CC(C)[C@H](NC(=O)[C@H](CCCCN)NC(=O)[C@@H](Cc1c[nH]c2ccccc12)NC(=O)[C@H](Cc1ccc(O)cc1)NC(=O)[C@H](CS)NC(=O)[C@H](N)Cc1ccccc1)C(=O)N[C@@H](CS)C(=O)N[C@@H](Cc1ccc(O)cc1)C(N)=O [RC-113-2H, D-PheCysTyrD-TrpLysValCysTyrNH2] (H-[dF]CY[dW]KVCY-NH2)	3020	
CC(C)[C@@H]1NC(=O)[C@H](CCCCN)NC(=O)[C@@H](Cc2c[nH]c3ccccc23)NC(=O)[C@H](Cc2ccc(O)cc2)NC(=O)[C@@H](NC(=O)[C@H](N)Cc2ccc(Cl)cc2)CSSC[C@@H](C(=O)N[C@H](C(N)=O)[C@@H](C)O)NC1=O [RC-88-II, p-Cl--D-Phe-- Cys--Tyr--D-Trp-- Lys--Val--Cys--Thr--NH2]	1740	Raw Data, Low Dose ([2]; Table 5, dose 3, single experiments in dogs with gastric fistulae): 22.5 and 23 and 35.6 and 22.8; SAMPLE POTENCY ([2]; Table 5, vs. standard, 16 experiments in dogs): 216.303%; duration of gastric acid inhibition after infusion ([2]; dogs with gastric fistulae): inhibition of gastric acid continues after infusion was stopped; inhibition of acid secretion relative to somatostatin ([2]; dogs with gastric fistulae): approximately twice
CC(C)[C@@H]1NC(=O)[C@H](CCCCN)NC(=O)[C@@H](Cc2c[nH]c3ccccc23)NC(=O)[C@H](Cc2ccc(O)cc2)NC(=O)[C@@H](NC(=O)[C@H](N)Cc2ccccc2)CSSC[C@@H](C(=O)N[C@@H](Cc2c[nH]c3ccccc23)C(N)=O)NC1=O [RC-160] (H-[dF]CY[dW]KVCW-NH2; disulfide 2-7)	13400	
CC(C)[C@@H](N)C(=O)N[C@@H](CS)C(=O)N[C@@H](Cc1ccccc1)C(=O)N[C@H](Cc1c[nH]c2ccccc12)C(=O)N[C@@H](CCCCN)C(=O)N[C@H](C(=O)N[C@@H](CS)C(=O)N[C@H](C(N)=O)[C@@H](C)O)[C@@H](C)O [RC-127-2H, D-ValCysPheD-TrpLysThrCysThrNH2] (H-[dV]CF[dW]KTCT-NH2)	790	
CC(C)[C@H](NC(=O)[C@H](CCCCN)NC(=O)[C@@H](Cc1c[nH]c2ccccc12)NC(=O)[C@H](Cc1ccc(O)cc1)NC(=O)[C@H](CS)NC(=O)[C@H](N)Cc1ccccc1)C(=O)N[C@@H](CS)C(=O)N[C@@H](Cc1cn(C=O)c2ccccc12)C(N)=O [RC-122-2H] (H-[dF]CY[dW]KVCW(For)-NH2)	5540	GH-Level mean ± SEM (GH Release; Table A single dose assay, 0.20 μg/100 g B.W. s.c., saline control 374 ± 69): 23 ± 3 ng/mL
